No constants are given. Whether binding was seen depends on the method and setting. For some of these results: Binding seen in cells or lysates may run through a third protein. Some entries that bind do so weakly or less than the wild type. For some of these results: Where a sequence is shown, tags or fusion partners need not be part of it.

Chains of the proteins cited; added tags and fusions are not shown.
UniProt P04456: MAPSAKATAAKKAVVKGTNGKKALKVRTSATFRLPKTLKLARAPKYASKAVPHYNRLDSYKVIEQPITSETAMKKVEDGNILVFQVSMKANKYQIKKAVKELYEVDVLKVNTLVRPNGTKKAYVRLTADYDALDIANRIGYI
UniProt Q3E757: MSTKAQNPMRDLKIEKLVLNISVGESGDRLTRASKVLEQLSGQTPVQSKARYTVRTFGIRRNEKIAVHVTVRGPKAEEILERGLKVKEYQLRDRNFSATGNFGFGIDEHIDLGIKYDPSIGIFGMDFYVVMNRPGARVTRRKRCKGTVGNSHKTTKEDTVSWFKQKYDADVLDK

In assay [1] the target is T1, GFP-Dbp5 (S. cerevisiae) (UniProt P20449).
T1 sequence: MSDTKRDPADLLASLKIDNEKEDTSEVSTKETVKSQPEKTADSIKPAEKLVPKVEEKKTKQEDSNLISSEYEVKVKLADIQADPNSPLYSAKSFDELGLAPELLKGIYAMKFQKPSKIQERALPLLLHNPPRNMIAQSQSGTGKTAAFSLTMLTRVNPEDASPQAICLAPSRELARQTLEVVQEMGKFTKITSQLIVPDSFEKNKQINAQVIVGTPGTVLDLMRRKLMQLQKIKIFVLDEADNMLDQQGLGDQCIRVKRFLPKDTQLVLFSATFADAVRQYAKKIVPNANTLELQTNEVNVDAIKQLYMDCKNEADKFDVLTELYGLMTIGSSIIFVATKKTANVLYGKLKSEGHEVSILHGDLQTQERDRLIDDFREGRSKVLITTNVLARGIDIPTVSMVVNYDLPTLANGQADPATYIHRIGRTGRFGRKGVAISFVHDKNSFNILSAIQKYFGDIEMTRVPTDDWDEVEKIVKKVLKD
The assay can be described thus: co-IP; GFP-tagged bait on GFP-Trap_A beads from clarified yeast lysate, PBSKMT (0.5% Triton-X 100), 3 h at 4°C, samples treated with 0.2 mg/ml RNase A for 30 min at 4°C; Western blot; in some panels wild type and dbp5 mutant cells after a 1 h temperature shift. For orientation: A western blot detects proteins with antibodies after separation by electrophoresis.

A further assay deals with T2, Nmd3-GFP (S. cerevisiae) (UniProt P38861).
T2 sequence: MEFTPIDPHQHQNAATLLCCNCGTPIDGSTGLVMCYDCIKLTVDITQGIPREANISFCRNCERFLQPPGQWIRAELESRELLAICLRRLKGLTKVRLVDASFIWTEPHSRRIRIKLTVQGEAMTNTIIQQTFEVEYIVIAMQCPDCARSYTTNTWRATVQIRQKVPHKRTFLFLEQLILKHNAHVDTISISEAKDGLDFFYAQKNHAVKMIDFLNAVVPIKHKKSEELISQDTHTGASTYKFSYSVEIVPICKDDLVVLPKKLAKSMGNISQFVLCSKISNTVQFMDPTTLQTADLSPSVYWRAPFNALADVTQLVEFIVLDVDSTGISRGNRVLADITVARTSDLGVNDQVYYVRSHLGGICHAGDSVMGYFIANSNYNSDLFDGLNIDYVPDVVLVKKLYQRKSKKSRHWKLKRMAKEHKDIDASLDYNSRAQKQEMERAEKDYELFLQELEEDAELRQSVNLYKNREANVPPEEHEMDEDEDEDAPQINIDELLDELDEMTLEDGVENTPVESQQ
The description is as above.

The target of assay [2] is T1, GFP-Dbp5 (S. cerevisiae). The assay can be described thus: co-IP; GFP-tagged bait on GFP-Trap_A beads from clarified yeast lysate, PBSKMT (0.5% Triton-X 100), 3 h at 4°C, no RNase A treatment indicated; Western blot; in some panels wild type and drg1-18 cells shifted for 1 h to 37°C.
For a further assay, the target named is T3, Dbp5-GFP (S. cerevisiae) (UniProt P20449).
T3 sequence: T1 sequence
The description is as above.

Another assay deals with T4, Arx1-GFP (S. cerevisiae) (UniProt Q03862).
T4 sequence: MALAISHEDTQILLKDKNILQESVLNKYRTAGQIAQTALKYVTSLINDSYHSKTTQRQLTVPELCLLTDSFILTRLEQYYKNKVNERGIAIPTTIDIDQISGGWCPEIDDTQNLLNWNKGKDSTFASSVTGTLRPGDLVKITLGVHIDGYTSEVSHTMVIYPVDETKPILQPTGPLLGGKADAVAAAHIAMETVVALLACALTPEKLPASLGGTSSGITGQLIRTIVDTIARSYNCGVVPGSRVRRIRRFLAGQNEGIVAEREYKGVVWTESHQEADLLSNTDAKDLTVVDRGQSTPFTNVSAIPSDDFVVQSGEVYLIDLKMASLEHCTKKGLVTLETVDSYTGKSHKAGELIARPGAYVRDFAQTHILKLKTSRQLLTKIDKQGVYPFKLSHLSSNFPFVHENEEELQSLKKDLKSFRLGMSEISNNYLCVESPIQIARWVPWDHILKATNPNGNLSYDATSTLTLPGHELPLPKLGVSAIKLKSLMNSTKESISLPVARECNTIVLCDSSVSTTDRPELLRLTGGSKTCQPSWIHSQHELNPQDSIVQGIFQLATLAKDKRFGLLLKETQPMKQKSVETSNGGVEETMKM
The description is as above.

For assay [3], the target named is Rpl25-GFP (S. cerevisiae) (UniProt P04456). The assay can be described thus: co-IP; Rpl25-GFP on GFP-Trap_A beads from pooled sucrose-gradient fractions of the free ribosomal subunits of wild type yeast lysate; PBSKMT buffer (0.3% Triton-X 100), 4.5 h at 4°C; Western blot.
Assay [4] has as its target Rpl11b-GFP (S. cerevisiae) (UniProt Q3E757). The assay can be described thus: co-IP; GFP-tagged bait on GFP-Trap_A beads from clarified yeast lysate, PBSKMT (0.5% Triton-X 100), 3 h at 4°C, samples treated with 0.2 mg/ml RNase A for 30 min at 4°C; Western blot; in some panels wild type and dbp5 mutant cells after a 1 h temperature shift.
The target of assay [5] is Rpl25-GFP (S. cerevisiae) (UniProt P04456). The assay can be described thus: co-IP; Rpl25-GFP on GFP-Trap_A beads from pooled polysomal sucrose-gradient fractions of wild type yeast lysate, samples treated with 0.1 mg/ml RNase A; PBSKMT buffer (0.3% Triton-X 100), 4.5 h at 4°C; Western blot.
The target in the next assay is T5, His-Mtr2 (S. cerevisiae) (UniProt P34232).
T5 sequence: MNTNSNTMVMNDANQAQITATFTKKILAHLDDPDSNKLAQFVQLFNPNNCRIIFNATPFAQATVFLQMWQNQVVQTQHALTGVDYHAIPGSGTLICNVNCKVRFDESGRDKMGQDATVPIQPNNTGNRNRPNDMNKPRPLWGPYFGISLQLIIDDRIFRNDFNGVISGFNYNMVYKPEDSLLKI
The assay can be described thus: co-purification (Ni-NTA affinity chromatography); His-Mtr2 and Mex67 co-expressed in E. coli BL21 DE3, heterodimer purified on Protino Ni-NTA agarose.

B1: Hem15 (protein, UniProt P16622 32-393)
chain: NAQKRSPTGIVLMNMGGPSKVEETYDFLYQLFADNDLIPISAKYQKTIAKYIAKFRTPKIEKQYREIGGGSPIRKWSEYQATEVCKILDKTCPETAPHKPYVAFRYAKPLTAETYKQMLKDGVKKAVAFSQYPHFSYSTTGSSINELWRQIKALDSERSISWSVIDRWPTNEGLIKAFSENITKKLQEFPQPVRDKVVLLFSAHSLPMDVVNTGDAYPAEVAATVYNIMQKLKFKNPYRLVWQSQVGPKPWLGAQTAEIAEFLGPKVDGLMFIPIAFTSDHIETLHEIDLGVIGESEYKDKFKRCESLNGNQTFIEGMADLVKSHLQSNQLYSNQLPLDFALGKSNDPVKDLSLVFGNHEST
For B1, the binding result with GFP-Dbp5 (S. cerevisiae) [1], with Nmd3-GFP (S. cerevisiae) and with GFP-Dbp5 (S. cerevisiae) [2] was “no binding” each time.

B2: Nmd3-13xmyc (protein, UniProt P38861 1-518)
chain: T2 sequence
On to B2, for which the binding entry with Dbp5-GFP (S. cerevisiae), in the assay with GFP-Dbp5 (S. cerevisiae) [2] and with Arx1-GFP (S. cerevisiae) was “binds” throughout.

B3: Mex67 (protein, UniProt Q99257 1-599)
chain: MSGFHNVGNINMMAQQQMQQNRIKISVRNWQNATMNDLINFISRNARVAVYDAHVEGPLVIGYVNSKAEAESLMKWNGVRFAGSNLKFELLDNNGASAGTSDTISFLRGVLLKRYDPQTKLLNLGALHSDPELIQKGVFSSISTQSKMFPAMMKLASTEKSLIVESVNLADNQLKDISAISTLAQTFPNLKNLCLANNQIFRFRSLEVWKNKFKDLRELLMTNNPITTDKLYRTEMLRLFPKLVVLDNVIVRDEQKLQTVYSLPMKIQQFFFENDALGQSSTDFATNFLNLWDNNREQLLNLYSPQSQFSVSVDSTIPPSTVTDSDQTPAFGYYMSSSRNISKVSSEKSIQQRLSIGQESINSIFKTLPKTKHHLQEQPNEYSMETISYPQINGFVITLHGFFEETGKPELESNKKTGKNNYQKNRRYNHGYNSTSNNKLSKKSFDRTWVIVPMNNSVIIASDLLTVRAYSTGAWKTASIAIAQPPQQQASVLPQVASMNPNITTPPQPQPSVVPGGMSIPGAPQGAMVMAPTLQLPPDVQSRLNPVQLELLNKLHLETKLNAEYTFMLAEQSNWNYEVAIKGFQSSMNGIPREAFVQF
B3: the binding result in [3] is recorded as “binds”; in the assay with GFP-Dbp5 (S. cerevisiae) [1] it was “binds weakly”; in [4], “binds”; in assay [5] it was “binds weakly”; in the assay with GFP-Dbp5 (S. cerevisiae) [2], “binds”; in the assay with Arx1-GFP (S. cerevisiae), “binds”.

B4: Mex67 (recombinant) (protein, UniProt Q99257 1-599)
chain: B3 chain
With B4, the binding entry with His-Mtr2 (S. cerevisiae) is given as “binds”.

The record behind these values is article PMC4752221.
